# Data: the supplement of paper PMC3334620
# The full ranking holds about 33,000 sequences; the median of “E-score (-0.5 to 0.5)” is about -0.054, and the highest 2% start at about 0.35. Some of the results follow.
# Target: T1, Stb5 (UniProt P38699)
# T1 sequence: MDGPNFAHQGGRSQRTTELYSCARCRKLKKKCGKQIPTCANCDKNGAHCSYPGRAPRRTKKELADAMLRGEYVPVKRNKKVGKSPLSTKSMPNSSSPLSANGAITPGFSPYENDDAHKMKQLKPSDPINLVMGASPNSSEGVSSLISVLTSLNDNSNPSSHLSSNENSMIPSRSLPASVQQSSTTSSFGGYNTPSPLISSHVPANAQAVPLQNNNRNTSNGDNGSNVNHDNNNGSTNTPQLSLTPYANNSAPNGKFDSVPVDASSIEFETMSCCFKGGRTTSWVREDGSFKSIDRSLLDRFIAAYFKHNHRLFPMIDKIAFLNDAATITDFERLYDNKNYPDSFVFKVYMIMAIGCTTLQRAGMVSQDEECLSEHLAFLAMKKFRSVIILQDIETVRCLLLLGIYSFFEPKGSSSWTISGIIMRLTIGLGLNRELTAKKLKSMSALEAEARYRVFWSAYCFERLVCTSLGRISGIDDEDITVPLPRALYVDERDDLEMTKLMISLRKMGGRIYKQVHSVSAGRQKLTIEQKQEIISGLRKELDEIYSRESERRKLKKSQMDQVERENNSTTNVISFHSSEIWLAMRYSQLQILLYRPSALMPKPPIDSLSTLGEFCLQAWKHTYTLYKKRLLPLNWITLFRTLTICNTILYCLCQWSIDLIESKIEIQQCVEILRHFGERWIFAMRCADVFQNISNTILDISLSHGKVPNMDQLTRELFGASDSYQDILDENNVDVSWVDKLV
# Assay: PBM E-score (8-mer binding enrichment) (E-score (-0.5 to 0.5)); higher = stronger / more preferred TF binding; most listed sequences are background and not binding sites
# Conditions: protein concentration: 200 nM; construct: GST-full length
# How it was run: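 Universal all-10-mer Agilent arrays, fresh or stripped once, were converted to double-stranded form by primer extension. GST-tagged yeast transcription factors from PURExpress in vitro transcription/translation, full-length or DNA-binding domain only, were applied at about 100-200 nM and detected with fluorescent anti-GST. After masliner normalisation, the Universal PBM Analysis Suite scored each ungapped eight-base word together with its reverse complement by E-score.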
row,Sequence,PBM E-score
1,CGCTTTAA,0.0868
2,AATGTCAC,0.0684
3,ATTCTGTC,-0.179
4,ACATAGCT,-0.185
5,GATATAAC,0.122
6,GTGGGGGA,-0.2
7,CTTCCCAA,-0.208
8,CGATTGGC,-0.0397
9,ATCACCCG,0.118
10,CTCCAGCC,-0.15
11,CTCGTCCC,-0.0253
12,ATTATTTG,0.0339
13,ACCTTTCG,0.0279
14,ATATCTCA,0.0336
15,GAGGCTGA,-0.201
16,GGCGAGTA,-0.101
17,GTGACTAA,-0.046
18,GCCTAAGA,-0.17
19,GAGTCCGA,0.286
20,ACCCACGA,0.00701
21,TACGAGTA,-0.0315
22,TCTCCTCA,-0.149
23,AAGTAAGC,-0.11
24,CCGAGGTC,0.145
25,ATCCTTAA,-0.156

row,Sequence,PBM E-score
1,GGAGTCTA,0.0281
2,AAGAGTGC,-0.0116
3,ACAAGTAT,-0.0785
4,AGTGGTAT,-0.0708
5,AATCGCCA,-0.0689
6,TCCCGAAA,0.171
7,TCAAGGAA,-0.239
8,AGACTTAC,-0.161
9,ACCACCCA,-0.217
10,ATGCTCCG,0.165
11,AATTTGGT,-0.146
12,ACAGGTAA,-0.118
13,AATGGATG,-0.343
14,AATGTTTC,-0.122
15,ACACAACA,-0.0623
16,GTTCTGGA,-0.175
17,GCACATAA,0.12
18,CCCCTTCG,-0.0277
19,CAGCGCCG,0.299
20,CAGCAGAC,-0.0728
21,CGGAGAAA,0.35
22,AACCTGCC,-0.15
23,CCAGGTAC,-0.212
24,ACGTATCA,-0.0805
25,CCGTGTCC,0.11

row,Sequence,PBM E-score
1,AACTAATA,0.133
2,CCAGGTAA,-0.113
3,TAGAGTAA,-0.0065
4,GTTGGCAA,-0.189
5,AAGGTTCG,-0.0237
6,AGATCAAG,-0.211
7,GCCTAACC,-0.0372
8,TATGTGAA,-0.344
9,CAAAGTCC,0.29
10,CCTTAAGG,-0.0301
11,CGCATACG,-0.0759
12,ATCAGTCC,0.158
13,GGGTTGAA,-0.0859
14,ACCTGCGT,-0.0401
15,CGCTAGGA,-0.0204
16,GATGGGGA,-0.116
17,GAAGTAGC,-0.034
18,AACCACAT,-0.134
19,GTGGCCAA,-0.271
20,GGCCTTTA,0.201
21,CAAAGCCG,0.0133
22,GGGAATCA,-0.0836
23,AAGGGACG,-0.0296
24,ACAAAAGT,-0.144
25,TAAAGGCA,-0.241

row,Sequence,PBM E-score
1,CGAGTAGA,-0.163
2,ACAAAATC,-0.0314
3,ACTTGATG,-0.101
4,CCGAAGGA,0.074
5,CGGCACTC,0.217
6,ATTCAGAA,-0.159
7,AGAGCTAC,-0.219
8,CACGATCC,-0.0649
9,AGGGGCCC,-0.0388
10,GCACAAGC,-0.151
11,CTAATTAG,-0.0467
12,TGATAGCA,-0.00064
13,CTGTCCGC,0.129
14,ATGTAAAT,-0.126
15,AAATGATA,-0.0108
16,GACAACCC,-0.0983
17,GACTTTCA,0.083
18,AGCGGATG,0.163
19,ATACACGG,0.0218
20,TAGGTTAA,0.0883
21,CAACCGCC,0.137
22,GGGACAAA,0.13
23,CTCCAGAC,-0.272
24,CGGTTCCC,0.0995
25,CTTATGTC,0.0195

row,Sequence,PBM E-score
1,TCCGTTAA,0.254
2,AAGCGCTT,0.0365
3,CCGAGACA,0.0635
4,CCGTATAC,0.083
5,CATGGCCC,-0.0254
6,ATCCGGTG,0.34
7,ACTATTCA,-0.084
8,CGGTGCAC,0.0634
9,CTATAGCC,0.15
10,GCAAGGTA,-0.158
11,GGATACAA,0.0748
12,CCTATGAA,-0.0593
13,CAGCCCCA,-0.36
14,AGACATTA,-0.00865
15,GAGTCTCA,-0.0838
16,TGGGGACA,-0.208
17,CAAAGGCG,-0.0234
18,ATTGTGAA,-0.177
19,CGGACCGA,0.4
20,CCTTAAAC,0.153
21,ACCTCGAG,-0.0292
22,CACCGCGG,0.419
23,ACCTCACA,-0.181
24,CATTATTA,0.0171
25,CCATTAGG,-0.24

row,Sequence,PBM E-score
1,GTCGTTGA,-0.0459
2,AACATTCA,-0.139
3,GGCGGCCC,0.297
4,CGAACGAG,-0.1
5,CGAGAGAG,0.0636
6,AATACGAC,-0.0666
7,AATCTGGA,-0.0549
8,AGCGGCTC,0.204
9,CCGGATAC,0.15
10,AATACATC,0.226
11,GGCCATAA,0.156
12,ACTTACTA,-0.149
13,ATACCCCA,-0.0468
14,CTTTCTAA,-0.00241
15,AAATCCCT,-0.0732
16,CAAGATCA,-0.133
17,ACCCCACC,0.182
18,AGGATCAA,-0.126
19,ATAATCTG,-0.144
20,CGACTCAG,-0.137
21,AGTCGCGA,-0.0369
22,TAGTGTGA,-0.284
23,AGCTATCC,-0.0553
24,CTACACGC,-0.212
25,CTGTACTA,-0.082

row,Sequence,PBM E-score
1,ACAAATGG,-0.217
2,AAGTTACA,-0.203
3,CACATGGC,-0.022
4,GATTAAAA,0.0759
5,AGAAGACC,0.0271
6,AGGTTCAT,-0.193
7,CGTAACTC,0.073
8,CCGCGTGC,0.193
9,CATACCAC,-0.047
10,CCCTGGAA,-0.0335
11,AGCACGGA,0.0905
12,CGTTGTCC,-0.0582
13,ACACACCC,0.0669
14,ACGTATCC,-0.0573
15,TGGATAAA,0.0988
16,CCCGGGAC,0.313
17,CTTGTGTC,0.0484
18,TCACAAAA,0.0716
19,TCCATAGA,-0.0154
20,GTACACTA,-0.0679
21,CCTGCCGA,-0.089
22,CTATGGCC,0.0987
23,CCCGAGGC,0.174
24,ATGCCAAG,-0.174
25,ACGGGTTA,0.0414

row,Sequence,PBM E-score
1,CCAACTCG,-0.131
2,CCGCAAAC,0.139
3,TACCCAAA,-0.283
4,CTGAGTTC,-0.145
5,GGGGTGAC,0.0132
6,CTCACTCC,-0.0219
7,GCACGCGA,-0.17
8,CTAAGTCC,0.245
9,ATCAATCC,0.0187
10,ACGAGGTA,-0.0801
11,AAATATTA,-0.0821
12,CCGTCGAA,0.201
13,CCCCATAG,-0.0805
14,GTGGACAC,-0.0799
15,CCGATTGC,0.241
16,CATATTTC,-0.0136
17,CAACAATG,-0.0552
18,CGTTCCCA,-0.107
19,AGCATCAG,-0.0401
20,ATAGTCCA,-0.12
21,CTTGAAAG,-0.149
22,CTATAGGC,-0.0578
23,GCGCGAGC,0.0731
24,CCACCGAG,0.0738
25,ACTTGTAT,-0.218

row,Sequence,PBM E-score
1,GGGCAACC,-0.00547
2,ACACTATG,-0.13
3,AGCTCAAG,-0.295
4,AAAGTCCT,0.108
5,ACGCAAAG,-0.0493
6,GTGTCTAA,-0.105
7,ACGACTTG,-0.282
8,GTCCTATA,0.211
9,CATGAAGA,-0.0479
10,AAGGGAGT,-0.11
11,AACGTGGA,-0.262
12,AAATGCAA,-0.0569
13,CGACGATA,0.0169
14,AGACGAAG,-0.146
15,AGTTCTGA,-0.18
16,ATTCCGGG,0.17
17,AGGTAATC,0.0868
18,CGCGTATC,0.122
19,ATAAGACA,-0.113
